Among the data in PubChem BioAssay AID463173 (ICCB-Longwood Screening Facility, Harvard Medical School, 2010) are survival values, retold here.

Screen size: about 52,000 compounds; about 1,700 (3.3%) were called active. No stated cut-off is given here; in the data, active means survival mostly below about 52% (no sharp cut-off); inactive means mostly above about 56%. This is one part of the list.

In the assay the test system is Wild type. Description: growth inhibition of S. aureus wild type versus tarO mutant, primary screen, teichoic acid synthesis inhibitors, RN4220, OD600 (AID 463173). The following applies: S. aureus RN4220 wild type/DeltatarO growth, OD600, 18 h, hits give low values, screened at 18.75 µg/mL (by protocol).
Consider `O=C(NC1C2CCCC1CN(C1CC1)C2)c1ccc(Cl)cc1` (stereo not given), for which the survival was inactive: 105%.

For `c1ccc(Cn2ncc3c(N4CCCCC4)ncnc32)cc1`, the survival is inactive: 109%.

As to `Cc1ccc(CNC(=O)Cn2ncc3c([nH]c4ccc(C)cc43)c2=O)cc1`, the survival is inactive: 79%.

As to `COc1cccc(N2CCN(C(=O)c3cc4c(=O)n(Cc5cccs5)ccc4nc3C)CC2)c1`, the survival was inactive: 69%.

Turning to `COc1ccccc1NC(=O)CN1C(=O)CC(c2ccc(C)c(C)c2)=Nc2ccccc21`, the survival was inactive: 77%.

For the compound `N#CCSc1cccc2cccnc12`, the survival was inactive: 103%.

For the compound `CC1Oc2ccccc2N(CC(=O)Nc2ccccc2F)C1=O` (stereo not given), the survival is inactive: 109%.

Consider `Cc1cccc(NC(=O)Cn2cnc(S(=O)(=O)N3CCCC3)c2)c1C`, for which the survival is inactive: 68%.

As for `Nc1cc(N)nc(SCc2noc(-c3ccc(Cl)cc3)n2)n1`, the survival was inactive: 112%.

Take `COc1ccccc1CCNC(=O)Cc1c(C)c2cc3c(C(C)(C)C)coc3c(C)c2oc1=O`: the survival was inactive: 115%.

For the compound `COc1ccc(CCNC(=O)c2ccc(-n3c(C)cc4c3CCCC4)cc2)cc1OC`, the survival is inactive: 83%.

As for `CCn1c(CC(=O)Nc2ccccc2)n[nH]c1=S`, the survival was inactive: 107%.

`CCCc1cc(=O)[nH]c(SCc2nc(-c3ccc(C)cc3)no2)n1`: the survival is inactive: 73%.

On to `CCCSc1ncc(Cl)c(C(=O)Nc2c(C(=O)Nc3ccccc3)oc3ccccc23)n1`, for which the survival was inactive: 84%.

For `COc1ccc(N2CCN(S(=O)(=O)CCNC(=O)COc3cccc(OC)c3)CC2)cc1`, the survival is inactive: 72%.

As for `CC(C)Oc1ccc(CNC(=O)Nc2ccc3c(c2)N(C)C(=O)c2ccccc2S3)cc1`, the survival was inactive: 124%.

Turning to `Cc1cccc(Cn2c(SCc3ccc(C(=O)N4CCC(C)CC4)cc3)nc3ccncc32)c1`, the survival was inactive: 86%.

For the compound `Cc1ccc(NC(=O)NCCOCCn2c(=O)oc3ccccc32)cc1F`, the survival was inactive: 83%.

As for `CCC1CCCCN1C(=O)/C=C/c1ccccc1Cl` (stereo not given), the survival was inactive: 110%.

`O=C(OCC1CCCO1)c1ccc2c(c1)N(Cc1cccc(Cl)c1)C(=O)c1ccccc1S2(=O)=O` (stereo not given): the survival was inactive: 84%.

For `Cc1cccc(NC(=O)c2c(NC(=O)c3ccccc3)sc3c2CCCC3)c1`, the survival was inactive: 82%.

As for `Cc1cc(C)c2c(n1)nn1c(C)c(CCC(=O)NCc3ccccc3Cl)c(C)nc21`, the survival is inactive: 84%.

As for `CN1CCSc2ccc(C(=O)NCc3ccccc3F)cc21`, the survival is inactive: 142%.

As to `COC(=O)c1c(C)sc(-c2c(-c3ccc4c(c3)OCCO4)[nH]c3[nH]c(=O)[nH]c(=O)c23)c1O`, the survival was inactive: 92%.

In the case of `CCOc1ccc(-c2cc3nc(C4CCN(C(=O)OC(C)(C)C)CC4)c(C(=O)Nc4ccc(C)cc4Cl)cn3n2)cc1`, the survival is inactive: 85%.

As to `O=S(=O)(c1ccc(Br)cc1)c1nnn2c1nc(Nc1cccc(C(F)(F)F)c1)c1sccc12`, the survival was inactive: 95%.

Consider `COc1ccc(NC(=O)CS(=O)CC(=O)Nc2cccc(F)c2)cc1` (stereo not given), for which the survival was inactive: 105%.

`COc1ccc(Cl)cc1NC(=O)CSc1c2c(nc3ccccc13)CCC2`: the survival was inactive: 70%.

For `COc1cc(C(=O)Nc2nc3c(s2)Cc2c(Br)ccc(OC)c2-3)cc(OC)c1OC`, the survival was inactive: 84%.

Take `Cc1cccc(-n2c(CCN3C(=O)c4ccccc4C3=O)nc3ccccc3c2=O)n1`: the survival is inactive: 112%.

As for `CCC(Sc1nc2ccccc2c2nc(CCc3c(C)n[nH]c3C)nn12)C(=O)Nc1ccc(OC)cc1` (stereo not given), the survival was inactive: 72%.

With `O=C(Nc1nnc(N2CCCCCC2)s1)Nc1ccccc1C(F)(F)F`, the survival was inactive: 69%.

With `CCN(c1ccccc1)S(=O)(=O)c1ccc(NC(=O)c2cc(=O)c3cc(C)ccc3o2)cc1`, the survival is inactive: 96%.

Consider `O=C(c1ccc2c(c1)N(Cc1ccc(F)cc1)C(=O)c1ccccc1S2=O)N1CCOCC1` (stereo not given), for which the survival is inactive: 87%.

With `COc1ccccc1-c1nnc(SCCOc2ccccc2C)o1`, the survival was inactive: 78%.

Regarding `CC(C)c1ccc(S(=O)(=O)c2cnc(SCC(=O)Nc3cccc(C(F)(F)F)c3)nc2N)cc1`, the survival was inactive: 80%.

Take `CCc1cccc(CC)c1NS(=O)(=O)c1ccc2c(c1)CCN2C(=O)C1CC1`: the survival was inactive: 80%.

For the compound `Cc1ccc(C2=NNC(c3cccnc3)=Nc3ccc(F)cc32)o1`, the survival is inactive: 99%.

Turning to `Cc1ccc(CNC(=O)c2nnc(Cc3cccc(F)c3)o2)cc1`, the survival was inactive: 91%.

With `CCOC(=O)c1cc(-c2ccc(OC)c(S(=O)(=O)Nc3ccc(OC)cc3OC)c2)on1`, the survival was inactive: 129%.

Consider `CCC(=O)/C=C1/Sc2ccc(C)cc2N1CC`, for which the survival is inactive: 113%.

With `O=C(Nc1ccc2nc(SCCOc3ccccc3Cl)sc2c1)c1cccs1`, the survival is inactive: 72%.

Take `COC(=O)c1sccc1S(=O)(=O)N1CCN(c2ccccc2OC)CC1`: the survival was inactive: 76%.

With `COc1ccc(/C=C2\SC(=S)N(CC(=O)NCCO)C2=O)cc1`, the survival was inactive: 114%.

In the case of `COc1ccc(N2CC(C(=O)Nc3ccc(NC(C)=O)cc3)CC2=O)cc1` (stereo not given), the survival is inactive: 73%.

Turning to `CCN1C(=O)c2ccccc2S(=O)c2ccc(C(=O)NCc3ccc(F)cc3)cc21` (stereo not given), the survival was inactive: 85%.

On to `COCCCNC(=O)C(=O)NCC(c1ccc2c(c1)OCO2)N1CCOCC1` (stereo not given), for which the survival is inactive: 87%.

In the case of `Cc1ccc(C)c(S(=O)(=O)c2nnn3c2nc(N2CCOCC2)c2sccc23)c1`, the survival is inactive: 113%.

On to `CC(C)N(Cc1ccccc1)c1ncnc2c1nnn2C`, for which the survival was inactive: 73%.

As to `CCOc1ccc(C(c2c(O)cc(C)n(CCOC)c2=O)N2CCN(c3ccccc3F)CC2)cc1` (stereo not given), the survival was inactive: 72%.

As to `CCc1cccc(NC(=O)CCc2c(C)nc3c(c2C)c(=O)n(C)c(=O)n3C)c1`, the survival is inactive: 124%.

On to `Cc1ccc(CNC(=O)CCSCc2ccccc2F)cc1`, for which the survival was inactive: 74%.

`O=C(NCc1cccnc1)c1nn(-c2ccccc2F)nc1CO`: the survival was inactive: 94%.

Consider `Cc1ccc(N(C(=O)COc2ccccc2C)S(=O)(=O)c2ccc(Cl)cc2)cc1`, for which the survival was inactive: 73%.

Take `Cc1cc(C)c2oc(C(=O)Nc3sc4c(c3C(=O)NCc3ccco3)CCCC4)cc(=O)c2c1`: the survival is inactive: 82%.

Regarding `Cc1ccc(NC(=O)c2cccc(N3CCCS3(=O)=O)c2)cc1`, the survival was inactive: 80%.

Take `CN(CC(=O)Nc1ccc(Cl)cc1)C1CCCCC1`: the survival was inactive: 110%.

In the case of `Cc1ccc(Nc2c(-c3cc(Br)ccc3F)nc3cc(C)ccn23)cc1`, the survival was active: 0%.

On to `CC(CN1CCOCC1)OC(=O)C(C)(c1ccccc1)c1ccccc1` (stereo not given), for which the survival is inactive: 109%.

In the case of `CCN(CC)S(=O)(=O)c1cc(-c2nnc(Nc3ccc(OC)c(C(N)=O)c3)c3ccccc23)ccc1C`, the survival was inactive: 84%.

In the case of `CCOCCCNC(=O)c1ccc(NC(=O)N2CCCCc3ccccc32)cc1`, the survival was inactive: 70%.

`COc1ccccc1N1CCN(c2ccc(=O)n(CC(=O)Nc3ccc(F)c(F)c3)n2)CC1`: the survival is inactive: 89%.

In the case of `Cc1c(NC(=O)c2ccc(Cl)cc2)cc(C(C)C)c(O)c1S(=O)(=O)c1ccc(Cl)cc1`, the survival was inactive: 73%.

As for `COc1ccccc1NC(=O)Cn1c(=O)n(-c2ccc(C)cc2)c(=O)c2ccc(C(=O)NCc3ccco3)cc21`, the survival was inactive: 71%.

As for `Cc1ccc(S(=O)(=O)Cn2nnnc2CN2CCC(Cc3ccccc3)CC2)cc1`, the survival was inactive: 90%.

As to `CCOc1ccc(NC(=O)N2CCC(CN3CCc4ccccc4C3)CC2)cc1`, the survival was active: -3%.

For `O=C(NCc1ccc(Cl)cc1)C1CCCN(C(=O)c2cnn(-c3ccc(F)cc3)c2-n2cccc2)C1` (stereo not given), the survival is inactive: 75%.

In the case of `O=C(CCn1c(=O)c2cccn2c2ccc(F)cc21)NCCc1ccccc1`, the survival was inactive: 57%.

Turning to `C/C(Cc1nc2ccccc2[nH]1)=N/Nc1ccccc1`, the survival is inactive: 40%.

As to `CCCc1cc(C(=O)Nc2c(C)nn(Cc3ccc(C)cc3)c2C)no1`, the survival is inactive: 72%.

With `Cc1ccc(C)c(Nc2cc(C(=O)NC3CCCCC3)c3ccccc3n2)c1`, the survival was inactive: 84%.

`CCC(=O)N1CCc2cc(CNC(=O)C(CC)c3ccccc3)ccc21` (stereo not given): the survival is inactive: 73%.

Take `Cc1ccccc1Cn1c(=O)n(CCc2ccccc2)c(=O)c2c(C)c(C)sc21`: the survival is inactive: 41%.

As to `COc1cccc(OCCSc2nc3ccccc3n2CC(=O)N2CCCCC2)c1`, the survival was inactive: 78%.

Regarding `COc1ccc(-c2nc(CN3CCC(C(=O)NCCCOC(C)C)CC3)c(C)o2)cc1OC`, the survival was inactive: 80%.

As to `COc1cccc(-n2cc(C(=O)NCc3ccccc3OC)c3ccccc3c2=O)c1`, the survival is inactive: 87%.

For `CCc1cc2c(cc3c(=O)n(CC(=O)NCCc4ccc(OC)c(OC)c4)ncn32)s1`, the survival was inactive: 96%.

Consider `COC(=O)c1cc(S(=O)(=O)NCC2CCN(Cc3cccc(F)c3)CC2)c[nH]1`, for which the survival is inactive: 90%.

`COc1cc(OC)c(C2Nc3ccccc3-c3nnc(SCc4ccccc4)nc3O2)cc1OC` (stereo not given): the survival is inactive: 77%.

`COc1ccc(OC)c(C2N=C(N)Nc3nc4ccccc4n32)c1` (stereo not given): the survival was inactive: 72%.

As for `CCN(CC)Cn1c(=S)sc2ccccc21`, the survival was inactive: 92%.

In the case of `O=C(CCn1ccc2cc(S(=O)(=O)N3CCCC3)ccc21)NCc1cccc(F)c1`, the survival was inactive: 55%.

On to `COC(=O)CSc1nc(-c2ccc(F)cc2)cc(C(F)(F)F)n1`, for which the survival is inactive: 123%.

As for `Cc1cccc(C)c1-n1ncc(C(=O)NCCN2CCOCC2)c1C1CCN(C(=O)OC(C)(C)C)CC1`, the survival is inactive: 75%.

In the case of `COc1ccc(NC(=O)Cn2c(=O)n(Cc3nc(C)no3)c(=O)c3cc4c(cc32)OCO4)cc1OC`, the survival is inactive: 70%.

As to `Cc1nc(-c2ccc(Cl)cc2)sc1CCNC(=O)c1ccc(C(F)(F)F)cc1`, the survival was inactive: 153%.

`Nc1ccc2nc(SCC(=O)O)sc2c1`: the survival is inactive: 84%.

Take `Cc1ccc(C)c(NC(=O)CCn2nc(C)c3c(C)n(-c4ccccc4)nc3c2=O)c1`: the survival is active: 10%.

As for `COC(=O)CSc1nc2ccc(C(C)C)cc2cc1C#N`, the survival is inactive: 103%.

`CCC(C(=O)Nc1ccccc1C(=O)OC)n1nc(C)c2c(C)n(-c3ccc(C)cc3)nc2c1=O` (stereo not given): the survival is inactive: 66%.
